Out of some 360,000 compounds screened, about 25,000 (6.9%) were called active. Inconclusive means that the source gave no clear call. Such entries were picked first, then a sample of the others. Calls come from the whole dose curve; as a rule, active = well fitted inhibition curve with a large enough effect; inconclusive = small, poorly fitted or top-dose-only effect; inactive = flat fitted curve, though single readings scatter. Where the call is inconclusive, the potency comes from a doubtful curve fit.
These molecules were tested against Luciferin 4-monooxygenase (Photinus pyralis) (UniProt P08659) (assay: qHTS profiling assay for firefly luciferase inhibitor/activator using purifed enzyme and Km concentrations of substrates (counterscreen for miR-21 project)). Details: purified FLuc, luminescence inhibition; activity change, negative = inhibition: at 57.5 µM (top of the series).
Chain of UniProt P08659 (P08659 whole entry, looked up): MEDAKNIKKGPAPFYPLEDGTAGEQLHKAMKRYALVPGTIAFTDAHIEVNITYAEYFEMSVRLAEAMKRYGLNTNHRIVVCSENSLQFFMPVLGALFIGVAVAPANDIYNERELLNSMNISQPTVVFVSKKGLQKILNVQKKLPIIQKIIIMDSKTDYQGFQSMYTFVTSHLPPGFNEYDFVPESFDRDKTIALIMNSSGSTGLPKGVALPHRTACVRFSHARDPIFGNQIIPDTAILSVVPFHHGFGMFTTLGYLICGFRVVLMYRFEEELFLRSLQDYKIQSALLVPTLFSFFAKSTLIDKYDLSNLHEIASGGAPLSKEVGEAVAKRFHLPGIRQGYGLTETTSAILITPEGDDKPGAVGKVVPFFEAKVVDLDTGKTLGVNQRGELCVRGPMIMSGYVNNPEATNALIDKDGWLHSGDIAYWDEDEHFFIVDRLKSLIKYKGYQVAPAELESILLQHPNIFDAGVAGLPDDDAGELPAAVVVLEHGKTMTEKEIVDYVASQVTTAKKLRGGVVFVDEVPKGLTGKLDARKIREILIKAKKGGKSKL
In short: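 Biochemical qHTS of compounds, final roughly 60 µM downward over six points, against 10 nM purified firefly luciferase using Km concentrations of substrates (10 uM D-luciferin, 10 uM ATP) in Tris acetate pH 7.5 buffer; luminescence output.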
Note: nearly all actives have a fitted effect of over 55% in size.
Potency is the fitted concentration of half-maximal effect; tags give direction and shape of the fitted curve.
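Throughout, for activity change, negative = inhibition: plate controls were vehicle for no effect and reference inhibitor for full effect.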

Structure (SMILES) | Potency | activity change, negative = inhibition
Cc1ccc2c(Cl)c(C)c(N3CCCC3)nc2n1 | active: 16.9 µM | 
O=C(CCN1C(=O)S/C(=C\c2ccccc2)C1=O)N1CCCCC1 | inconclusive: 26.9 µM [inhibitor, partial curve, poor fit] | 
Cc1ccc(NC(=O)NN2CCOCC2)cc1 | inconclusive: 16.9 µM [inhibitor, partial curve] | 
CCOC(=O)/C(=C\c1ccc(OC(F)F)cc1)C1=Nn2c(nnc2-c2ccc(Cl)cc2)SC1 |  | inactive: -15%
CCCNC(=O)c1c(NC(=O)c2ccccc2F)sc2c1CCCCC2 |  | inactive: -3.14%
COc1cc(CNc2ccc3[nH]c(=O)[nH]c3c2)ccc1OCc1ccc(C)cc1 | inconclusive: 21.3 µM [inhibitor, single point] | 
O=C(NC(Cc1c[nH]c2ccccc12)C(=O)O)c1ccc(Br)cc1 (stereo not drawn) | inconclusive: 26.9 µM [inhibitor, partial curve, poor fit] | 
COc1ccc(C(CNC(=O)CSc2ccccc2F)N2CCOCC2)cc1 (stereo not drawn) | inconclusive: 2.39 µM [inhibitor, full curve, poor fit] | 
CCOc1ccccc1NC(=O)CCc1nc(-c2cccc(C)c2)no1 |  | inactive: -15.5%
COc1ccc(NC(=O)CCN2C(=O)/C(=C/c3ccc4c(c3)OCO4)SC2=S)cc1 |  | inactive: 1.43%
CC(C)[C@]1(c2ccc(Cl)cc2)ON(c2ccccc2C(F)(F)F)C1=O |  | inactive: -1.02%
CCc1ccc(NC(=O)COc2ccc3c(c2)OCO3)cc1 | active: 26.9 µM | 
COc1ccccc1/C=N/Nc1nc(C)cc(C)n1 | inconclusive: 16.9 µM [inhibitor, partial curve] | 
Cc1ccc(N(C(=O)Cc2cccs2)C(C(=O)NC2CCCCC2)c2ccccn2)cc1C (stereo not drawn) | inconclusive: 26.9 µM [inhibitor, single point] | 
Cc1ccc(N(Cc2ccccc2)C(=O)c2cc(S(=O)(=O)N3CCOCC3)ccc2Cl)cc1 | inconclusive: 19 µM [inhibitor, single point] | 
CCSc1nc(N)c2c(C)c(C)sc2n1 | inconclusive: 3.79 µM [inhibitor, full curve, poor fit] | 
COc1ccc(N/N=C(\C#N)C(=O)NCCc2ccc(OC)c(OC)c2)cc1 |  | inactive: -11.8%
O=C(/C=C/c1ccccc1)OCC(=O)N1CCCC1 | inconclusive: 26.9 µM [inhibitor, partial curve, poor fit] | 
CCOc1ccc(OCc2ccc(C(=O)Nc3ccc(Cl)cn3)o2)cc1 | inconclusive: 23.9 µM [inhibitor, partial curve, poor fit] | 
CCN(CC)S(=O)(=O)c1cccc(C(=O)Nc2ccccc2)c1 | inconclusive: 33.8 µM [inhibitor, partial curve, poor fit] | 
Cn1cccc1/C=C1\SC(=O)N(c2ccc(O)cc2)C1=O | inconclusive: 3.79 µM [inhibitor, full curve] | 
O=C(N/N=C/c1cccnc1)c1cc2ccccc2o1 | inconclusive: 30.1 µM [inhibitor, single point] | 

Structure (SMILES) | Potency | activity change, negative = inhibition
Cc1ccccc1-c1nnc(SCC(=O)N2CCCc3ccccc32)o1 | inconclusive: 16.9 µM [inhibitor, partial curve] | 
Cc1ccc(/C=N/NC(=O)Cc2c[nH]c3ccccc23)c(C)c1 | inconclusive: 23.9 µM [inhibitor, single point] | 
Cc1ccc(N(C)S(=O)(=O)c2c(-c3ccccc3)csc2C(=O)O)cc1 | inconclusive: 15.1 µM [inhibitor, partial curve] | 
Cc1cc2nc(-c3cccc(NC(=O)COc4ccc(C(C)C)cc4)c3)oc2cc1C | active: 1.51 µM | 
COc1ccc(NC(=O)CSc2nc(-c3ccc(OC)c(OC)c3)[nH]c2-c2ccc(C)cc2)cc1 | inconclusive: 9.53 µM [inhibitor, partial curve] | 
CCOC(=O)Cc1ccc(NC(=O)N(C(C)C)C2CCN(C(C)=O)CC2)cc1 | inconclusive: 21.3 µM [inhibitor, partial curve, poor fit] | 
O=C(/C=C/c1ccc2c(c1)OCO2)NCC1CCCO1 (stereo not drawn) | inconclusive: 26.9 µM [inhibitor, single point] | 
N#CC1(c2nc3ccccc3[nH]2)CC1c1ccc2c(c1)OCO2 (stereo not drawn) | active: 19 µM | 
O=C(CSC(=S)N1CCCC1)c1ccccc1 | active: 1.07 µM | 
O=C(Nc1ccc(Cl)cc1)c1cc(S(=O)(=O)N2CCCc3ccccc32)ccc1F | inconclusive: 37.9 µM [inhibitor, single point] | 
CCc1c(C)c2ccc(OCC(=O)OC)cc2oc1=O | inconclusive: 23.9 µM [inhibitor, partial curve] | 
C=COC(=O)CSc1nc(-c2cccs2)ccc1C#N | inconclusive: 19 µM [inhibitor, partial curve] | 
Cc1[nH]c2ccc(C(=O)NCc3ccccn3)cc2c1C | inconclusive: 23.9 µM [inhibitor, partial curve] | 
COc1ccc(OCC(=O)Nc2nc(-c3ccc(Br)cc3)ns2)cc1 | active: 10.7 µM | 
COc1cccc(NC(=O)Nc2nc(-c3ccc(OC)c(OC)c3)cs2)c1 | inconclusive: 21.3 µM [inhibitor, single point] | 
O=C(Nc1ccccc1C(=O)O)c1ccc(NC(=O)C2CCCCC2)cc1 | active: 9.53 µM | 
CCc1nnc(NC(=O)CSc2ncc(-c3ccccc3)n2C)s1 | inconclusive: 37.9 µM [inhibitor, partial curve, poor fit] | 
CCOC(=O)c1cc2c(ccc3ccccc32)oc1=O | inconclusive: 37.9 µM [inhibitor, partial curve, poor fit] | 
CC(=O)N1c2c(cc(Br)cc2S(=O)(=O)Nc2ccc(OC(F)(F)F)cc2)CC1C (stereo not drawn) | inconclusive: 15.1 µM [inhibitor, partial curve, poor fit] | 
CC(/C=C/c1ccccc1)=N/O | inconclusive: 37.9 µM [inhibitor, partial curve, poor fit] | 
COc1ccc(/C=C2/SC(=S)N(CCCC(=O)Nc3ccc(O)cc3)C2=O)cc1 | inconclusive: 8.49 µM [inhibitor, partial curve] | 

From PubChem BioAssay AID588342 (National Center for Advancing Translational Sciences (NCATS), 2011)
